# Some of the results follow.
# Tests used:
# Assay in all cases: glycan array binding signal (z-score within array); higher = stronger binding
# Conditions in all cases: glycan notation: IUPAC condensed, linker removed
# [1] = target: GlcNAc(b1-2)[GlcNAc(b1-4)]Man(a1-3)[GlcNAc(b1-4)][GlcNAc(b1-2)[GlcNAc(b1-6)]Man(a1-6)]Man(b1-4)GlcNAc(b1-4)GlcNAc
# Procedure, shortened: (§1)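 The binding signal is a Z-score computed within each array and averaged over linkers. Arrays of the same protein sequence at different concentrations or buffers were also averaged together. Data originate from 3228 arrays in the Consortium for Functional Glycomics database, kept only where the protein sequence was available.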
# [2] = target: GlcNAc(b1-2)[GlcNAc(b1-4)]Man(a1-3)[GlcNAc(b1-4)][GlcNAc(b1-2)[GlcNAc(b1-6)]Man(a1-6)]Man(b1-4)GlcNAc(b1-4)[Fuc(a1-6)]GlcNAc
# Procedure, shortened: as §1
# [3] = target: GlcNAc(b1-2)[GlcNAc(b1-6)]Man(a1-6)[GlcNAc(b1-2)Man(a1-3)]Man(b1-4)GlcNAc(b1-4)GlcNAc
# Procedure, shortened: as §1
# [4] = target: GlcNAc(b1-2)[GlcNAc(b1-6)]Man(a1-6)[GlcNAc(b1-2)Man(a1-3)]Man(b1-4)GlcNAc(b1-4)[Fuc(a1-6)]GlcNAc
# Procedure, shortened: as §1
# [5] = target: GlcNAc(b1-2)[GlcNAc(b1-6)]Man(a1-6)[GlcNAc(b1-4)][GlcNAc(b1-2)Man(a1-3)]Man(b1-4)GlcNAc(b1-4)GlcNAc
# Procedure, shortened: as §1
# GlcNAc(b1-3)Fuc = target: GlcNAc(b1-3)Fuc
# Procedure, shortened: as §1
# GlcNAc(b1-3)Gal = target: GlcNAc(b1-3)Gal
# Procedure, shortened: as §1
# [6] = target: GlcNAc(b1-3)Gal(b1-3)GalNAc
# Procedure, shortened: as §1
# GlcNAc(b1-3)Gal(b1-4)Glc = target: GlcNAc(b1-3)Gal(b1-4)Glc
# Procedure, shortened: as §1
# [7] = target: GlcNAc(b1-3)Gal(b1-4)GlcNAc
# Procedure, shortened: as §1
# [8] = target: GlcNAc(b1-3)Gal(b1-4)GlcNAc(b1-2)Man(a1-3)[GlcNAc(b1-3)Gal(b1-4)GlcNAc(b1-2)Man(a1-6)]Man(b1-4)GlcNAc(b1-4)GlcNAc
# Procedure, shortened: as §1
# [9] = target: GlcNAc(b1-3)Gal(b1-4)GlcNAc(b1-2)Man(a1-3)[GlcNAc(b1-3)Gal(b1-4)GlcNAc(b1-2)Man(a1-6)]Man(b1-4)GlcNAc(b1-4)[Fuc(a1-6)]GlcNAc
# Procedure, shortened: as §1
# [10] = target: GlcNAc(b1-3)Gal(b1-4)GlcNAc(b1-2)[GlcNAc(b1-3)Gal(b1-4)GlcNAc(b1-6)]Man(a1-6)[GlcNAc(b1-3)Gal(b1-4)GlcNAc(b1-2)Man(a1-3)]Man(b1-4)GlcNAc(b1-4)GlcNAc
# Procedure, shortened: as §1
# [11] = target: GlcNAc(b1-3)Gal(b1-4)GlcNAc(b1-3)Gal(b1-4)GlcNAc
# Procedure, shortened: as §1
# [12] = target: GlcNAc(b1-3)Gal(b1-4)GlcNAc(b1-3)Gal(b1-4)GlcNAc(b1-2)Man(a1-3)[GlcNAc(b1-3)Gal(b1-4)GlcNAc(b1-3)Gal(b1-4)GlcNAc(b1-2)Man(a1-6)]Man(b1-4)GlcNAc(b1-4)GlcNAc
# Procedure, shortened: as §1
# [13] = target: GlcNAc(b1-3)Gal(b1-4)GlcNAc(b1-3)Gal(b1-4)GlcNAc(b1-2)Man(a1-3)[GlcNAc(b1-3)Gal(b1-4)GlcNAc(b1-3)Gal(b1-4)GlcNAc(b1-2)Man(a1-6)]Man(b1-4)GlcNAc(b1-4)[Fuc(a1-6)]GlcNAc
# Procedure, shortened: as §1
# [14] = target: GlcNAc(b1-3)Gal(b1-4)GlcNAc(b1-3)Gal(b1-4)GlcNAc(b1-2)[GlcNAc(b1-3)Gal(b1-4)GlcNAc(b1-3)Gal(b1-4)GlcNAc(b1-6)]Man(a1-6)[GlcNAc(b1-3)Gal(b1-4)GlcNAc(b1-3)Gal(b1-4)GlcNAc(b1-2)Man(a1-3)]Man(b1-4)GlcNAc(b1-4)[Fuc(a1-6)]GlcNAc
# Procedure, shortened: as §1
# [15] = target: GlcNAc(b1-3)Gal(b1-4)GlcNAc(b1-3)Gal(b1-4)GlcNAc(b1-3)Gal(b1-4)GlcNAc(b1-2)Man(a1-3)[GlcNAc(b1-3)Gal(b1-4)GlcNAc(b1-3)Gal(b1-4)GlcNAc(b1-3)Gal(b1-4)GlcNAc(b1-2)Man(a1-6)]Man(b1-4)GlcNAc(b1-4)GlcNAc
# Procedure, shortened: as §1
# [16] = target: GlcNAc(b1-3)Gal(b1-4)GlcNAc(b1-3)Gal(b1-4)GlcNAc(b1-3)Gal(b1-4)GlcNAc(b1-2)Man(a1-3)[GlcNAc(b1-3)Gal(b1-4)GlcNAc(b1-3)Gal(b1-4)GlcNAc(b1-3)Gal(b1-4)GlcNAc(b1-2)Man(a1-6)]Man(b1-4)GlcNAc(b1-4)[Fuc(a1-6)]GlcNAc
# Procedure, shortened: as §1
# [17] = target: GlcNAc(b1-3)Gal(b1-4)GlcNAc(b1-3)Gal(b1-4)GlcNAc(b1-3)Gal(b1-4)GlcNAc(b1-2)[GlcNAc(b1-3)Gal(b1-4)GlcNAc(b1-3)Gal(b1-4)GlcNAc(b1-3)Gal(b1-4)GlcNAc(b1-6)]Man(a1-6)[GlcNAc(b1-3)Gal(b1-4)GlcNAc(b1-3)Gal(b1-4)GlcNAc(b1-3)Gal(b1-4)GlcNAc(b1-2)Man(a1-3)]Man(b1-4)GlcNAc(b1-4)[Fuc(a1-6)]GlcNAc
# Procedure, shortened: as §1
# [18] = target: GlcNAc(b1-3)Gal(b1-4)GlcNAc(b1-3)Gal(b1-4)GlcNAc(b1-3)Gal(b1-4)GlcNAc(b1-3)Gal(b1-4)GlcNAc(b1-2)Man(a1-3)[GlcNAc(b1-3)Gal(b1-4)GlcNAc(b1-3)Gal(b1-4)GlcNAc(b1-3)Gal(b1-4)GlcNAc(b1-3)Gal(b1-4)GlcNAc(b1-2)Man(a1-6)]Man(b1-4)GlcNAc(b1-4)GlcNAc
# Procedure, shortened: as §1
# [19] = target: GlcNAc(b1-3)Gal(b1-4)GlcNAc(b1-3)Gal(b1-4)GlcNAc(b1-3)Gal(b1-4)GlcNAc(b1-3)Gal(b1-4)GlcNAc(b1-2)Man(a1-3)[GlcNAc(b1-3)Gal(b1-4)GlcNAc(b1-3)Gal(b1-4)GlcNAc(b1-3)Gal(b1-4)GlcNAc(b1-3)Gal(b1-4)GlcNAc(b1-2)Man(a1-6)]Man(b1-4)GlcNAc(b1-4)[Fuc(a1-6)]GlcNAc
# Procedure, shortened: as §1
# [20] = target: GlcNAc(b1-3)Gal(b1-4)GlcNAc(b1-3)Gal(b1-4)GlcNAc(b1-3)Gal(b1-4)GlcNAc(b1-3)Gal(b1-4)GlcNAc(b1-2)[GlcNAc(b1-3)Gal(b1-4)GlcNAc(b1-3)Gal(b1-4)GlcNAc(b1-3)Gal(b1-4)GlcNAc(b1-3)Gal(b1-4)GlcNAc(b1-6)]Man(a1-6)[GlcNAc(b1-3)Gal(b1-4)GlcNAc(b1-3)Gal(b1-4)GlcNAc(b1-3)Gal(b1-4)GlcNAc(b1-3)Gal(b1-4)GlcNAc(b1-2)Man(a1-3)]Man(b1-4)GlcNAc(b1-4)[Fuc(a1-6)]GlcNAc
# Procedure, shortened: as §1
# [21] = target: GlcNAc(b1-3)Gal(b1-4)GlcNAc(b1-3)Gal(b1-4)GlcNAc(b1-3)GalNAc
# Procedure, shortened: as §1
# [22] = target: GlcNAc(b1-3)Gal(b1-4)GlcNAc(b1-3)GalNAc
# Procedure, shortened: as §1
# [23] = target: GlcNAc(b1-3)Gal(b1-4)GlcNAc(b1-3)[GlcNAc(b1-3)Gal(b1-4)GlcNAc(b1-3)]GalNAc
# Procedure, shortened: as §1
# [24] = target: GlcNAc(b1-3)Gal(b1-4)GlcNAc(b1-6)[Gal(b1-3)]GalNAc
# Procedure, shortened: as §1
# [25] = target: GlcNAc(b1-3)Gal(b1-4)GlcNAc(b1-6)[GlcNAc(b1-3)Gal(b1-3)]GalNAc
# Procedure, shortened: as §1
# [26] = target: GlcNAc(b1-3)Gal(b1-4)GlcNAc(b1-6)[GlcNAc(b1-3)]Gal(b1-4)GlcNAc
# Procedure, shortened: as §1
# GlcNAc(b1-3)GalNAc = target: GlcNAc(b1-3)GalNAc
# Procedure, shortened: as §1
# GlcNAc(b1-3)Man = target: GlcNAc(b1-3)Man
# Procedure, shortened: as §1
# [27] = target: GlcNAc(b1-3)[GlcNAc(b1-4)][GlcNAc(b1-6)]GlcNAc
# Procedure, shortened: as §1
# [28] = target: GlcNAc(b1-3)[GlcNAc(b1-6)]Gal(b1-4)GlcNAc
# Procedure, shortened: as §1
# [29] = target: GlcNAc(b1-3)[GlcNAc(b1-6)]GalNAc
# Procedure, shortened: as §1
# [30] = target: GlcNAc(b1-4)Gal(b1-4)GlcNAc
# Procedure, shortened: as §1
# GlcNAc(b1-4)GlcNAc = target: GlcNAc(b1-4)GlcNAc
# Procedure, shortened: as §1
# [31] = target: GlcNAc(b1-4)GlcNAc(b1-4)GlcNAc
# Procedure, shortened: as §1
# [32] = target: GlcNAc(b1-4)GlcNAc(b1-4)GlcNAc(b1-4)GlcNAc(b1-4)GlcNAc
# Procedure, shortened: as §1
binder,measurement,setting,value
PX9937F-bfa-516-16-516 (Bacteroides fragilis) (protein) LDIDPTSSIADSNYWKTEAQFSTFNVGLHALLRECSFNFFLLGEPRADIYGDVPFGGEATQGMERLPFNTINKENTGISNFAGMYKVINQINLMIAKTKETTVLSEAGKNYYLGEAYGMRAYLYFHLLRSWGDVILYLDYTNGASLDLSNLSKAASPAEEVMKQIKEDITASEKGFGSDYSFKYGRYYWSMAATQMLKGEVYLWSGRQMGGGTADYTTAKTALQSIVSNANVSLQDDFSKVFAYNNKDNSEIIFSIRNAKDEYNMWDDRFRQNLVPQQAYMTSTYCNKEGVSFKDLPEGQLNGLIRLQIRYDLYNKAFRDGDTRKDASMTAVYQKQQDGTVKYIAPFCNKYQGVLLDGASQRSFLNDYPIYRYADCLLLLAEAKALLGEDPTAEINQVRERAYGKEFFEANKATLAYPNDKGDFYTDNKYMSGDEDPLEAILKERMREFMFEGKRWYDLRLLGADYVTKRTSAVATRLLWPINESVLTDNPALKQTPGYQN,glycan array binding signal (z-score),[1],-0.291
same,glycan array binding signal (z-score),[2],-0.302
same,glycan array binding signal (z-score),[3],0.071
same,glycan array binding signal (z-score),[4],-0.191
same,glycan array binding signal (z-score),[5],-0.368
same,glycan array binding signal (z-score),GlcNAc(b1-3)Fuc,-0.267
same,glycan array binding signal (z-score),GlcNAc(b1-3)Gal,-0.462
same,glycan array binding signal (z-score),[6],0.075
same,glycan array binding signal (z-score),GlcNAc(b1-3)Gal(b1-4)Glc,-0.403
same,glycan array binding signal (z-score),[7],-0.247
same,glycan array binding signal (z-score),[8],-0.089
same,glycan array binding signal (z-score),[9],1.82
same,glycan array binding signal (z-score),[10],-0.073
same,glycan array binding signal (z-score),[11],-0.275
same,glycan array binding signal (z-score),[12],0.054
same,glycan array binding signal (z-score),[13],-0.201
same,glycan array binding signal (z-score),[14],-0.078
same,glycan array binding signal (z-score),[15],0.988
same,glycan array binding signal (z-score),[16],-0.099
same,glycan array binding signal (z-score),[17],0.224
same,glycan array binding signal (z-score),[18],-0.089
same,glycan array binding signal (z-score),[19],-0.049
same,glycan array binding signal (z-score),[20],0.188
same,glycan array binding signal (z-score),[21],-0.334
same,glycan array binding signal (z-score),[22],-0.191
same,glycan array binding signal (z-score),[23],0.342
same,glycan array binding signal (z-score),[24],-0.127
same,glycan array binding signal (z-score),[25],-0.241
same,glycan array binding signal (z-score),[26],-0.049
same,glycan array binding signal (z-score),GlcNAc(b1-3)GalNAc,-0.005
same,glycan array binding signal (z-score),GlcNAc(b1-3)Man,-0.36
same,glycan array binding signal (z-score),[27],0.037
same,glycan array binding signal (z-score),[28],-0.272
same,glycan array binding signal (z-score),[29],-0.242
same,glycan array binding signal (z-score),[30],-0.271
same,glycan array binding signal (z-score),GlcNAc(b1-4)GlcNAc,-0.052
same,glycan array binding signal (z-score),[31],-0.306
same,glycan array binding signal (z-score),[32],-0.172
